Experimental data from the supplement of paper PMC4723716.
± gives the uncertainty stated by the source. Whole data set: some 9,900 compounds, median “viability index relative to DMSO control” near 1, cut for the lowest 2% near 0.85. This is one part of the list.

Tested on: Plasmodium falciparum NF54 stage V gametocytes
Assay: viability index relative to DMSO control (fraction); higher = less gametocyte killing
Conditions: 2.5 µM, incubation time: 72 h
In short: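 Viability index is the count of red-stained particles in a well divided by the plate mean of solvent-only wells. Particles of 20–70 µm2 were counted in one imaged field per well after one to two hours with 3 µl of 2.5 µM MitoTracker Red CMXRos and 0.13% saponin. Before staining, P. falciparum NF54 stage V gametocytes in serum-free medium (0.75% gametocytemia, 1.25% hematocrit, 10 µl, 1,536-well plates) were kept with compound at 2.5 µM for 72 hr at 37°C under low oxygen.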

[1] = library set: Broad Institute DOS

SMILES: CC(C)NC(=O)Nc1ccc2c(c1)C(=O)N([C@@H](C)CO)C[C@H](C)[C@H](CN(C)C(=O)C1CCCCC1)OCCCC[C@@H](C)O2
- viability index [1]: 1.017 ± 0.0016

SMILES: CCC(=O)N1C[C@H](O)COC[C@H]2O[C@@H](CC(=O)NCc3ccc(Oc4ccccc4)cc3)CC[C@@H]21
- viability index [1]: 1.09 ± 0.029

SMILES: O=C(O)C[C@@H]1C[C@@H]2c3cc(NC(=O)Nc4ccc(C(F)(F)F)cc4)ccc3O[C@@H]2[C@@H](CO)O1
- viability index [1]: 1.071 ± 0.0017

SMILES: CCS(=O)(=O)Nc1ccc2c(c1)C(=O)N(C)[C@@H]1CC[C@H](CC(=O)NCc3ccccc3F)O[C@@H]1CO2
- viability index [1]: 1.14 ± 0.043

SMILES: C[C@H](NC(=O)C[C@@H]1CC[C@@H]2[C@H](COc3ccc(NS(=O)(=O)c4ccc(Cl)cc4)cc3C(=O)N2C)O1)c1ccccc1
- viability index [1]: 1.01 ± 0.035

SMILES: COc1ccc2c3c([C@@H](CO)NC[C@]33CN(Cc4ccccc4Cl)C3)n(C)c2c1
- viability index [1]: 0.961 ± 0.0099

SMILES: C[C@@H]1CCCCO[C@@H](CN(C)S(=O)(=O)c2ccc(F)cc2)[C@@H](C)CN([C@H](C)CO)C(=O)c2cc(NC(=O)CCCCCC(=O)Nc3ccccc3N)ccc2O1
- viability index [1]: 1.02 ± 0.12

SMILES: COc1ccccc1-c1ccc2c(c1)O[C@H](CN(C)CC1CCOCC1)[C@@H](C)CN([C@H](C)CO)S2(=O)=O
- viability index [1]: 0.9788 ± 0.0049

SMILES: O=C(C1CC1)N1CC2(C1)[C@@H](c1ccccc1)[C@@H](CO)N2S(=O)(=O)c1ccccc1
- viability index [1]: 1.06 ± 0.033

SMILES: CCCNC(=O)Nc1ccc2c(c1)OC[C@H](C)N(S(C)(=O)=O)C[C@@H](C)[C@H](OC)CN(C)C2=O
- viability index [1]: 0.9825 ± 0.0052

SMILES: O=C(NC[C@@H]1[C@@H](c2ccccc2)[C@@H](CO)N1C(=O)Cc1ccncc1)C1CCC1
- viability index [1]: 1.06 ± 0.058

SMILES: COc1ccc(S(=O)(=O)Nc2ccc3c(c2)C(=O)N([C@@H](C)CO)C[C@@H](C)[C@H](CN(C)C(=O)Nc2c(C)noc2C)OCCCC[C@@H](C)O3)cc1
- viability index [1]: 1.17 ± 0.17

SMILES: CCCc1cn(CC[C@@H]2CC[C@H](NS(=O)(=O)c3ccc(-c4ccccc4)cc3)[C@H](CO)O2)nn1
- viability index (library set: Broad Institute Blood Stage): 0.909 ± 0.037

SMILES: COc1cccc(S(=O)(=O)Nc2ccc3c(c2)[C@@H]2C[C@H](CC(=O)NC4CCCCC4)O[C@@H](CO)[C@@H]2O3)c1
- viability index [1]: 1.066 ± 0.0012

SMILES: O=C(C1CCOCC1)N1CC(=O)N2[C@H](CO)[C@@H](c3ccc(C#CCc4ccccc4)cc3)[C@@H]2C1
- viability index [1]: 1.006 ± 0.0042

SMILES: COc1ccc2c3c([nH]c2c1)[C@H](CO)N(Cc1cc(F)ccc1F)C[C@]31CCN(CC1)C(=O)CN(C)C
- viability index [1]: 0.93 ± 0.12

SMILES: CO[C@@H]1CN(C)C(=O)c2cc(NC(=O)C3CC3)ccc2OC[C@H](C)N(Cc2cc(F)ccc2F)C[C@@H]1C
- viability index [1]: 0.971 ± 0.069

SMILES: CCc1cnc(N2[C@H](C#N)[C@H](c3ccc(C4=CCCCC4)cc3)[C@H]2CO)s1
- viability index [1]: 1.04 ± 0.048

SMILES: CN1C(=O)c2cc(NS(=O)(=O)c3ccccc3F)ccc2OC[C@@H]2O[C@H](CC(=O)NC3Cc4ccccc4C3)CC[C@@H]21
- viability index [1]: 1 ± 0.06

SMILES: CO[C@@H]1CN(C)C(=O)c2ccc(NC(=O)C3CCOCC3)cc2OC[C@@H](C)N(Cc2ccc(F)cc2)C[C@H]1C
- viability index [1]: 1.07 ± 0.012

SMILES: COc1ccc(C#Cc2ccc([C@@H]3[C@@H](CO)N4C(=O)CN(C(=O)NC(C)C)C[C@@H]34)cc2)cc1
- viability index [1]: 1.02 ± 0.086

SMILES: CO[C@@H]1CN(C)C(=O)c2ccc(NS(C)(=O)=O)cc2OC[C@H](C)N(C(=O)CN(C)C)C[C@H]1C
- viability index [1]: 0.905 ± 0.26

SMILES: COc1ccccc1-c1ccc([C@@H]2[C@@H]3CN(Cc4nccs4)C[C@H]2N3)cc1
- viability index [1]: 0.9605 ± 0.0013

SMILES: CCC(=O)N1C[C@]2(CN(C2)C(C)=O)c2c([nH]c3cc(OC)ccc23)[C@H]1CO
- viability index [1]: 1.05 ± 0.028

SMILES: O=C(C[C@@H]1CC[C@H]2[C@@H](COC[C@H](O)CN2C(=O)c2ccncc2)O1)Nc1ccc(-c2ccccc2)cc1
- viability index [1]: 1.11 ± 0.026

SMILES: CCS(=O)(=O)N1CC2(C1)[C@H](c1ccccc1)[C@@H](CO)N2Cc1ccc(F)cc1
- viability index [1]: 1.11 ± 0.056

SMILES: COc1cccc(S(=O)(=O)N2C[C@@H]3N[C@H](C2)[C@@H]3c2ccc(-c3ccccc3F)cc2)c1
- viability index [1]: 1.02 ± 0.072

SMILES: CCc1cnc(N2[C@H](C#N)[C@@H](c3ccc(-c4cccc(F)c4)cc3)[C@H]2CO)s1
- viability index [1]: 1.07 ± 0.011

SMILES: O=C(C[C@H]1C[C@H]2c3cc(NC(=O)c4ccc5c(c4)OCO5)ccc3O[C@H]2[C@@H](CO)O1)NCc1ccc(Oc2ccccc2)cc1
- viability index [1]: 1.03 ± 0.033

SMILES: O=C(C[C@H]1CC[C@H](NC(=O)Nc2ccc(C(F)(F)F)cc2)[C@@H](CO)O1)NCc1cccc(F)c1
- viability index [1]: 0.983 ± 0.018

SMILES: CCCC#Cc1ccc([C@H]2[C@@H](CO)N3C(=O)CN(S(=O)(=O)c4ccccc4C)C[C@H]23)cc1
- viability index [1]: 1.025 ± 0.0087

SMILES: O=C(C1CCC1)N1C[C@H]2[C@@H](c3ccccc31)[C@@H](CO)N2C(=O)Nc1cccc(F)c1
- viability index [1]: 0.954 ± 0.017

SMILES: CCS(=O)(=O)Nc1ccc2c(c1)C(=O)N(C)[C@H]1CC[C@H](CC(=O)N3CCN(C)CC3)O[C@@H]1CO2
- viability index [1]: 1.05 ± 0.051

SMILES: C/C=C/c1ccc([C@@H]2[C@H]3CNC[C@@H]2N3S(=O)(=O)c2ccccc2C)cc1
- viability index [1]: 0.99 ± 0.13

SMILES: COc1ccccc1NC(=O)N1CC(=O)N2[C@H](CO)[C@H](c3ccc(C#CC(C)C)cc3)[C@@H]2C1
- viability index [1]: 1.06 ± 0.02

SMILES: Cc1noc(C)c1S(=O)(=O)N(C)C[C@H]1OCCCC[C@@H](C)Oc2ccc(NC(=O)CCC(F)(F)F)cc2C(=O)N([C@H](C)CO)C[C@@H]1C
- viability index [1]: 1.2 ± 0.03

SMILES: CC(C)NC(=O)N1[C@@H](CO)[C@@H]2c3ccccc3NC[C@@H]21
- viability index [1]: 1.03 ± 0.013

SMILES: N#C[C@H]1[C@H](c2ccccc2)[C@@H](CO)N1S(=O)(=O)c1cccc(F)c1
- viability index [1]: 1.03 ± 0.063

SMILES: COc1ccc(S(=O)(=O)N(C)C[C@H]2OCCCC[C@H](C)Oc3ccc(NC(=O)Cc4ccccc4)cc3C(=O)N([C@@H](C)CO)C[C@H]2C)cc1
- viability index [1]: 0.791 ± 0.031

SMILES: C/C=C/c1ccc([C@H]2[C@@H](CO)N[C@@H]2CN(C(=O)c2ccccc2F)C(C)C)cc1
- viability index [1]: 0.964 ± 0.083

SMILES: CCS(=O)(=O)N1CC(=O)N2[C@@H](CO)[C@H](c3ccc(C#CC4CCCCC4)cc3)[C@@H]2C1
- viability index [1]: 1.06 ± 0.032

SMILES: N#C[C@H]1[C@H](c2ccccc2)[C@H](CO)N1C(=O)c1ccc2c(c1)OCO2
- viability index [1]: 1.09 ± 0.006

SMILES: Cc1cccc(S(=O)(=O)N2CC[C@@H]3[C@@H](CO)N(C)c4ccc(Br)cc4[C@@H]32)c1
- viability index [1]: 1.096 ± 0.0085

SMILES: O=C(Nc1ccccc1F)N1CC(=O)N2[C@H](C1)[C@H](c1ccc(-c3cccnc3)cc1)[C@@H]2CO
- viability index [1]: 1.01 ± 0.055

SMILES: CO[C@H](CN(C)C(=O)c1ccccc1F)[C@@H](C)CN([C@H](C)CO)S(=O)(=O)c1ccc(F)cc1
- viability index [1]: 1.11 ± 0.041

SMILES: COc1ccc(-c2ccccc2[C@H]2[C@@H](C#N)N(C(=O)NC(C)C)[C@H]2CO)cc1
- viability index [1]: 1.06 ± 0.061

SMILES: CS(=O)(=O)N1[C@H](C#N)[C@H](c2ccccc2-c2ccccc2F)[C@H]1CO
- viability index [1]: 1.16 ± 0.054

SMILES: O=C(C[C@@H]1C=C[C@@H](NC(=O)Nc2cccc(F)c2)[C@@H](CO)O1)NCC1CCCCC1
- viability index [1]: 0.95 ± 0.071

SMILES: COc1ccccc1NC(=O)N[C@H]1CC[C@H](CCNS(=O)(=O)c2ccc(Cl)cc2)O[C@@H]1CO
- viability index [1]: 0.853 ± 0.12

SMILES: CCCC(=O)Nc1ccc2c(c1)C(=O)N(C)[C@H]1CC[C@@H](CC(=O)N3CCCCC3)O[C@@H]1CO2
- viability index [1]: 1.11 ± 0.061

SMILES: CC(C)C#Cc1ccc([C@@H]2[C@@H](CO)N3C(=O)CN(C(=O)c4ccc5c(c4)OCO5)C[C@@H]23)cc1
- viability index [1]: 1.08 ± 0.072

SMILES: C[C@@H]1CN([C@@H](C)CO)C(=O)c2ccccc2-c2ccccc2CO[C@@H]1CN(C)S(=O)(=O)c1cn(C)cn1
- viability index [1]: 0.904 ± 0.074

SMILES: O=C(C1CCC1)N1CC2(C1)[C@@H](c1ccccc1)[C@@H](CO)N2Cc1nccs1
- viability index [1]: 1.09 ± 0.07

SMILES: CO[C@H]1CN(C)C(=O)c2ccc(NC(=O)c3nc4ccccc4s3)cc2OC[C@H](C)N(Cc2cccnc2)C[C@@H]1C
- viability index [1]: 1.04 ± 0.13

SMILES: CCCC#Cc1ccc2c(c1)[C@@H]1[C@@H](CCN1S(=O)(=O)c1ccccc1C)[C@@H](CO)N2
- viability index [1]: 1.01 ± 0.039

SMILES: C[C@H](CO)N1C[C@H](C)[C@@H](CN(C)C(=O)C2CCOCC2)Oc2ncc(-c3cccc(C#N)c3)cc2C1=O
- viability index [1]: 1 ± 0.03

SMILES: COCC(=O)N1CC(=O)N2[C@H](CO)[C@H](c3ccc(C#CC4CC4)cc3)[C@@H]2C1
- viability index [1]: 1.07 ± 0.04

SMILES: Cc1ccc(OC(=O)N(C)C[C@@H]2OCc3ccccc3-c3ccccc3C(=O)N([C@@H](C)CO)C[C@@H]2C)cc1
- viability index [1]: 1.02 ± 0.055

SMILES: C[C@H](NC(=O)C[C@@H]1CC[C@@H]2[C@@H](COc3ccc(NC(=O)C4CCOCC4)cc3C(=O)N2C)O1)c1ccccc1
- viability index [1]: 1.12 ± 0.072

SMILES: COc1ccc2c3c([nH]c2c1)[C@@H](CO)N(C[C@]31CN(C1)C(=O)NC(C)C)C(=O)C1CCOCC1
- viability index [1]: 1.03 ± 0.045

SMILES: CN1C(=O)c2cc(NC(=O)c3cccc(Cl)c3)ccc2OC[C@@H]2O[C@@H](CC(=O)NC3CCCCC3)CC[C@H]21
- viability index [1]: 1.1 ± 0.042

SMILES: CO[C@@H]1CN(C)C(=O)c2ccc(NS(=O)(=O)CC(F)(F)F)cc2OC[C@H](C)N(Cc2nccs2)C[C@@H]1C
- viability index [1]: 1.11 ± 0.024

SMILES: COCC#Cc1ccc([C@@H]2[C@@H](CO)N3CCCCN(Cc4cccnc4)C[C@@H]23)cc1
- viability index [1]: 1.06 ± 0.14

SMILES: CN1[C@H](C(=O)N2CCc3ccccc3C2)[C@@H](CO)[C@@H]2Cn3c(ccc(-c4cccnc4)c3=O)[C@@H]21
- viability index [1]: 1.054 ± 0.0029

SMILES: O=C(c1cccc(F)c1)N1CC2(C1)[C@@H](c1ccccc1)[C@H](CO)N2Cc1ccccn1
- viability index [1]: 1.07 ± 0.042

SMILES: CC(=O)N1[C@@H](CO)[C@@H]2c3ccccc3N(S(=O)(=O)c3ccccc3C)C[C@@H]21
- viability index [1]: 1.02 ± 0.042

SMILES: CCS(=O)(=O)N(C)C[C@@H]1N[C@H](CO)[C@@H]1c1ccc(C#CC(C)C)cc1
- viability index [1]: 0.983 ± 0.075

SMILES: O=C(C[C@@H]1CC[C@@H](NC(=O)CC2CC2)[C@@H](CO)O1)NCC(F)(F)F
- viability index [1]: 1.02 ± 0.025

SMILES: OC[C@@H]1[C@H](c2ccc(C3=CCCC3)cc2)[C@H]2CN(Cc3ccncc3)CCCCN12
- viability index [1]: 1.05 ± 0.068

SMILES: N#C[C@H]1[C@H](c2ccccc2C2=CCCCC2)[C@H](CO)N1S(=O)(=O)c1ccccc1
- viability index [1]: 1.14 ± 0.019

SMILES: O=C(NC1Cc2ccccc2C1)[C@@H]1[C@@H](CO)[C@@H]2Cn3c(cccc3=O)[C@@H]2N1C(=O)c1cnccn1
- viability index [1]: 1.06 ± 0.096
